Screen size: about 2,000 compounds; about 45 (2%) were called active.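 How the source made its calls: active means inhibition above the mean of all tested compounds plus 3 SD (cut at about 49% in these data); inactive means the rest.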 The list shows a part of the results.
Target: Perilipin-5 (Homo sapiens) + 1-acylglycerol-3-phosphate O-acyltransferase ABHD5 (Homo sapiens) (UniProt Q00G26+Q8WTS1)
Assay: ABHD5-PLIN5 interaction inhibitors, pilot screen, cell lysate, split luciferase complementation, luminescence, NIH validation set (AID 493035);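 further: 0% = DMSO only wells while the 100% control is not stated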
Details: split G. princeps luciferase complementation, lysates, 4 h; at 7.9 µM, active compounds read high

Sequence of UniProt Q00G26 (Q00G26 whole entry, looked up): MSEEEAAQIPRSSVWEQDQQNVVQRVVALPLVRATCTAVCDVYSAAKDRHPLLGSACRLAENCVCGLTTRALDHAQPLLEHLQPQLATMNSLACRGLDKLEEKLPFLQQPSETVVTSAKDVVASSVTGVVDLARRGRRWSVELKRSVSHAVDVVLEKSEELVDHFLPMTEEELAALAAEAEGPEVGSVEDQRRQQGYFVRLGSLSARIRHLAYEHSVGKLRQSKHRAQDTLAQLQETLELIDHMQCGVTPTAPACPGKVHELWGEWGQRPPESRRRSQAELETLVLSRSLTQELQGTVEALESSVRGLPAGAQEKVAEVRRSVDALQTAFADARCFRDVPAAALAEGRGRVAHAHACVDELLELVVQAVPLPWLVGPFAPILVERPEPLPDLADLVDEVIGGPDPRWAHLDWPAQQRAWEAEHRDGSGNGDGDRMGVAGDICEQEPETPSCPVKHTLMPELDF
Sequence of UniProt Q00G26 (Q8WTS1 whole entry, looked up): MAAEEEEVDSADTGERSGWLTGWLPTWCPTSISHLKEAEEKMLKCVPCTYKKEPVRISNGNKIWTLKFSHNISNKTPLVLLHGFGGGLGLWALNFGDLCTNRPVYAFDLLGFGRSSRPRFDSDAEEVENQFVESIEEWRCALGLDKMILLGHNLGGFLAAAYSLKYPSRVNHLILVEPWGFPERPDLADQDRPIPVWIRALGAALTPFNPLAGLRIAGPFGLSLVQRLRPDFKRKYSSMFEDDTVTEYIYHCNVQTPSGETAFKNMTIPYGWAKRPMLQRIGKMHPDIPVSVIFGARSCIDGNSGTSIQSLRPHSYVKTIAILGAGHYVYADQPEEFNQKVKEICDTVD

inhibition, inactive:
CC1(C)S[C@@H]2[C@H](NC(=O)C(C(=O)O)c3ccccc3)C(=O)N2[C@H]1C(=O)O (some centres not stated) -2.82%, OCC1(CCOc2ccccc2)CCN(CCCn2cccn2)CC1 1.14%, CCOC(=O)c1ncn2c1CN(C)C(=O)c1cc(F)ccc1-2 -14.1%, CCOC(=O)Cc1c(C)nc(N)[nH]c1=O -9.42%, COc1cc(SC)ccc1C(=O)NC(C)C 0.69%, COc1ccc(C(=O)NCCC2=CCCCC2)cc1[N+](=O)[O-] 4.64%, Cc1oc2cc(O)cc(O)c2c(=O)c1-c1ccc2c(c1)OCCCO2 12.4%, CC(C(=O)O)c1cccc(C(=O)c2ccccc2)c1 (configuration not stated) -6.25%, Cc1ccc([N+](=O)[O-])cc1NC1OC(CO)C(O)C1O (configuration not stated) 5.59%, Cc1ccccc1NC(=O)c1c(C)cc(=O)oc1C 1.27%, O=C(CNC(=O)OCc1ccccc1)Oc1cc2oc(=O)cc(-c3ccccc3)c2cc1Cl -6.75%, CC1(C)Cc2nc3oc4c(NCc5ccccc5)ncnc4c3cc2CO1 9.62%, CCCC1O[C@@H]2C[C@H]3[C@@H]4CCC5=CC(=O)C=C[C@]5(C)[C@H]4[C@@H](O)C[C@]3(C)[C@]2(C(=O)CO)O1 (some centres not stated) -4.15%, CC(=O)N1CCN2C(=O)C1CCCC(=O)c1cc(C(C)C)ccc12 (configuration not stated) 0.71%, Cn1cnc2c1c(=O)n(CC(O)CO)c(=O)n2C (configuration not stated) -8.03%, CC(=O)OCC(=O)[C@@]1(O)[C@H](C)C[C@H]2[C@@H]3CCC4=CC(=O)C=C[C@]4(C)[C@@]3(F)[C@@H](O)C[C@@]21C -10.2%, Cc1ccccc1NC(=O)NCCc1c[nH]c2ccccc12 -8.65%, Nc1nc2c(ncn2COCCO)c(=O)[nH]1 -4.46%, O=c1c2[nH]c3ccccc3c2ncn1CCC1=CCCCC1 -6.62%, COc1ccc2nc(Nc3nc(CSc4ccc(C)cc4)cc(=O)[nH]3)nc(C)c2c1 4.18%, O=C(O)c1ccc(OCCn2ccnc2)cc1 -0.12%, C#C[C@]1(O)CC[C@H]2[C@@H]3CCc4cc(O)ccc4[C@H]3CC[C@@]21C 10.8%, Cc1occc(=O)c1O 2.41%, CCOCCn1c(C(C)O)nc2ccccc21 (configuration not stated) -12.2%, COc1cc2c(cc1OC)C(c1ccccc1)=NCC2 3.69%, COc1ccc(C(=O)Nc2cccnc2)cc1C(=O)Nc1cccnc1 0.1%, CCC12CN3CC(CC)(CN(C1)C31C(=O)N(C)c3ccc(C)cc31)C2=O (configuration not stated) 5.09%, N/C(=N\OC(=O)c1cccc(Br)c1)c1ccncc1 0.43%, Nc1cccc2nc3ccccc3cc12 -7.62%, O=C(NC1CC1)C1CCN(C2CCN(C(=O)Cc3ccc(F)cc3)CC2)CC1 -10.8%, CCCc1cc(=O)[nH]c(=S)[nH]1 -2.08%, COC(=O)CN1C(=S)N(c2ccc(F)cc2)C(=O)C1CC(=O)Nc1ccccc1 (configuration not stated) 4.01%, COc1ccc(CCN(C)CCCC(C#N)(c2ccc(OC)c(OC)c2)C(C)C)cc1OC (configuration not stated) -9.72%, CNCCCC1c2ccccc2C=Cc2ccccc21 -7.68%, Cc1ccsc1/C=N\NC(=O)c1ccc2c(c1)OCO2 -0.81%, O=C(O)CC(O)C(=O)O (configuration not stated) -4.33%, O=C(Nc1cccc(C(=O)O)c1)/C(=C\c1ccccc1)NC(=O)c1ccccc1 -2.05%, C[C@]12CCC(=O)C=C1CC[C@@H]1[C@@H]2[C@@H](O)C[C@@]2(C)[C@H]1CC[C@]2(O)C(=O)CO -4.66%, CC(C)N(Cc1nccn1C)C(=O)CC1C(=O)NCCN1Cc1ccccc1C(F)(F)F (configuration not stated) -10.4%, COc1ccc(-c2coc3c(CN4CCOCC4)c(O)ccc3c2=O)cc1 -12.6%, CC(=O)N1CCN(c2ccc(NC(=O)/C=C/c3ccccc3)cc2)CC1 5.07%, CC/C(=C1/C(=O)CC(C)(C)C(C(=O)OC)C1=O)N1CCCC1 (configuration not stated) 6.45%, CC(=O)c1c(N)nc2n(c1=O)CCCCC2 -12.3%, O=C(O)[C@@H](O)c1ccccc1 0.33%, C/C(CCc1oc2ccc(Cl)cc2c1-c1ccc(C)o1)=N\O 26.3%, Nc1nc(Cl)nc2c1ncn2[C@H]1C[C@H](O)[C@@H](CO)O1 -3.58%, Fc1ccc(C(c2ccc(F)cc2)N2CCN(C/C=C/c3ccccc3)CC2)cc1 -5.56%, CCOC(=O)C(=O)Nc1ccc(Oc2ccccc2)cc1 -8.65%, COc1ccccc1C(=O)Nc1cc2cc(Br)ccc2oc1=O -7.35%, CCCCC(=O)O[C@H]1CC[C@H]2[C@@H]3CCc4cc(O)ccc4[C@H]3CC[C@]12C -8.52%, CC(=O)C1=C(O)C(=O)N(CC(=O)O)C1c1ccccc1Cl (configuration not stated) 0%, N=C(N)c1ccc(OCCCCCOc2ccc(C(=N)N)cc2)cc1 -0.96%, CCN(CC)CCN1C(=O)C(=O)/C(=C(/O)c2c(C)[nH]c(C(=O)OC)c2C)C1c1cccnc1 (configuration not stated) -2.32%, CC1(C)Oc2ccc(C#N)cc2[C@@H](N2CCCC2=O)[C@@H]1O 4.44%, O=C(NCc1ccccc1Cl)NC(=O)c1ccccc1 3.04%, CC[N+](C)(C)Cc1ccccc1Br -4.2%, Cc1oncc1C(=O)Nc1ccc(C(F)(F)F)cc1 1.09%, COc1ccc(C(Cl)=C(c2ccc(OC)cc2)c2ccc(OC)cc2)cc1 -4.18%, O=C(O)c1cccnc1Nc1cccc(C(F)(F)F)c1 -0.4%, CC(CCc1ccccc1)NCC(O)c1ccc(O)c(C(N)=O)c1 (configuration not stated) -7.73%, Cc1ccc(Cl)c(OCCCN(C)Cc2ccccc2)c1 -11%, CCc1cc2c(=O)c(-c3ccc4c(c3)OCCO4)coc2c(CN2CCCCC2C)c1O (configuration not stated) 19.7%

Reference: PubChem BioAssay AID493035 (The Scripps Research Institute Molecular Screening Center, 2011)
